Source: the BET-seq Pho4 binding data (Le et al. 2018)
This is one part of the list. These are noisy estimates, calculated here from bound and input reads.

target: T1, Pho4 (S. cerevisiae) (UniProt P07270); assay: relative binding free energy (BET-seq); higher = weaker binding; conditions: reference: library average
T1 sequence: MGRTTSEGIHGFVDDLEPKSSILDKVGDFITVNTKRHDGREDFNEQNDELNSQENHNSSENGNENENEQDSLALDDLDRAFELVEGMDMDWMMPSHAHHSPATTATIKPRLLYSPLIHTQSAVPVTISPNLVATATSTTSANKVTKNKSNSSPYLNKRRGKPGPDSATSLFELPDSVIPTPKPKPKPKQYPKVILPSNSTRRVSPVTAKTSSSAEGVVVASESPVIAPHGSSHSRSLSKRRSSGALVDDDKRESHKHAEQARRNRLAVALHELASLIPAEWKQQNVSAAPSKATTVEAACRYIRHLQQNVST

Sequence	relative binding free energy [kcal/mol]
ATGGTCACGTGAAAAT	0.45
TTAATCACGTGGTCAG	0
ACGTTCACGTGGGTTC	0.15
TAGTTCACGTGACGGG	0.29
GTTGACACGTGACGGT	0.09
GTGCACACGTGTGGTT	0.15
GGGATCACGTGGAAAT	0.23
GTTTCCACGTGATTTT	0.27
GTTTGCACGTGTGTGC	0.18
TGTGGCACGTGCAAGA	-0.15
AGGTGCACGTGTAACT	0.01
GTGTGCACGTGAGTGT	0.27
ATATCCACGTGTGGGT	-0.22
CGTTACACGTGTGTAA	0.2
GGCAGCACGTGGGGCT	-0.14
CGGGCCACGTGTTGGT	-0.2
CTCGTCACGTGGTAGG	0.02
ACAGGCACGTGGTGGT	-0.15
TTTGTCACGTGAACGC	0.29
GGGCTCACGTGTTAGA	0.27
GTTTCCACGTGTATTG	0.05
GTCTTCACGTGAGGGG	0.34
AAAGGCACGTGGCTGT	-0.3

Sequence	relative binding free energy [kcal/mol]
AATGTCACGTGGTAGC	0.14
GCAATCACGTGTGGGG	0.2
TCTTGCACGTGTCGGG	0.12
ATATACACGTGATGAG	0.16
AGTAGCACGTGAAGGG	0.2
CGGTTCACGTGTGAAT	0.32
TTTCGCACGTGTTTTT	0.05
GCTGGCACGTGGGATT	-0.14
TAACGCACGTGTATGT	-0.14
ATTTTCACGTGCTGCG	0.24
TTCTTCACGTGTGGAT	0.4
TGGTGCACGTGACGCG	-0.04
AATGACACGTGAGTTG	0.23
ATATGCACGTGTGCGG	-0.03
AGGGGCACGTGTTCGG	-0.16
TATGACACGTGCTAGG	-0.05
TATATCACGTGGGCTA	-0.07
ATTTACACGTGGTAAT	0.05
TTTACCACGTGGTGTG	-0.13
CAGTTCACGTGTAGGG	0.17
CGGGGCACGTGCAATG	-0.02
GGGAACACGTGTTTGT	0.09
ATTCTCACGTGATTTG	0.34

Sequence	relative binding free energy [kcal/mol]
AGGTTCACGTGAGTCG	0.32
AAGTACACGTGTATAG	0.06
TTTTGCACGTGTATAG	0.08
GATATCACGTGGGCGA	0.21
AAGGCCACGTGGGGGC	-0.31
GTCAGCACGTGTTTGT	-0.03
AATGCCACGTGTAGGG	-0.12
GTTGTCACGTGATAAA	0.14
GGGGACACGTGAATAT	0.28
TACAGCACGTGGGTAG	-0.2
AGGATCACGTGGTGCA	0.05
TGAAGCACGTGTGTTG	-0.01
GGGCACACGTGGAGGA	-0.02
TTAGACACGTGGGTAC	-0.11
AAGGGCACGTGCGGCG	-0.21
GTTAGCACGTGTGGAG	0.09
GGGAGCACGTGCGTTG	-0.16
ATTAACACGTGATTAT	0.12
AGGGCCACGTGTCGGG	-0.11
AGTTTCACGTGGTGCG	0.29
GGGTCCACGTGTCTGG	0.09
AGTGGCACGTGTAGTG	-0.07
TATGTCACGTGTGTGT	0.22

Sequence	relative binding free energy [kcal/mol]
ACTGGCACGTGCGGTT	-0.01
AAAATCACGTGAGTGG	0.3
ATTAGCACGTGGCGGA	-0.09
TTGGGCACGTGCATCT	-0.11
TATTGCACGTGGTACA	-0.15
TACGGCACGTGTTTTG	0.05
ATAAACACGTGATGGT	0.06
TTAGGCACGTGGGAAA	-0.04
TGGGTCACGTGAGACT	0.4
GTTCTCACGTGTTGGA	0.27
TTTTACACGTGCGGCT	0.06
AAGTTCACGTGGTAAG	0.12
GGTTACACGTGTAGTG	0.18
GTAGCCACGTGGTTAG	-0.19
TCGTGCACGTGTGGTG	0.01
GGAGACACGTGCAGGT	0.01
GCGTACACGTGGGGTG	0.01
CTTGTCACGTGGTGAG	0.1
AATTCCACGTGGGGTG	-0.12
TTGCGCACGTGTTTTT	-0.07
ATGTTCACGTGGTAAT	0.17
TTAGTCACGTGATGCT	0.16
AGTTCCACGTGGCGGG	0.09

Sequence	relative binding free energy [kcal/mol]
TAGCACACGTGGGGGG	-0.18
AGCGTCACGTGGGGGT	-0.17
GGGAGCACGTGAGGTA	0.06
AACGGCACGTGGGGAG	-0.13
AAATGCACGTGGTTGT	-0.08
TTTATCACGTGATGCA	0.18
GGTGGCACGTGGTTAA	-0.01
AGTTGCACGTGCGGAT	-0.15
TTTACCACGTGATGTT	0.11
GGTGCCACGTGGTGGA	-0.19
GGTAACACGTGATCGT	0.29
TGAAGCACGTGGATGG	-0.06
AGTTGCACGTGTTAAA	0.06
CTGGGCACGTGTCAGG	-0.16
TGAAACACGTGGTGAA	0.22
GGTGTCACGTGGTCTT	-0.03
GGTGCCACGTGGGGCG	-0.3
CACTTCACGTGGTGGT	0.11
TGTCGCACGTGAATTG	0.11
TTGATCACGTGGATCG	0.07
TGATTCACGTGGCTTG	0.06
TTGTCCACGTGTGAGA	0.2
AATATCACGTGCTGGG	0.07
